# In all, about 310,000 compounds went through this assay and about 18,000 (5.8%) were called active. This list was built around the results that the source calls inconclusive (neither active nor inactive); the mix of calls is not that of the screen. The call rests on the fitted dose curve; in most records, active means well fitted inhibition curve with a large enough effect; inconclusive means small, poorly fitted or top-dose-only effect, or another doubt; inactive means no such curve, though single readings can be large or run the other way. No potency is given beside an inconclusive call; the fits are too rough.
# Assay: Primary qHTS for delayed death inhibitors of the malarial parasite plastid, 48 hour incubation
# Conditions: P. falciparum luciferase growth in erythrocytes; series mostly up to 28.7 µM
# Procedure, shortened: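 Growth was read as firefly luciferase luminescence after a 48 h, 37 C, 5% CO2 exposure of compounds to reporter-bearing P. falciparum cultures (0.1% parasitemia, 2% hematocrit final) in Albumax-supplemented RPMI 1640.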
# On the % scale 0 is the no-effect control and ±100 the full control effect; potency means the concentration at half of the fitted maximal effect; tags describe the fitted curve by direction and shape.
Structure (SMILES),Potency,"activity change, negative = inhibition"
CC(C)CCn1c(O)c(N=NC(=O)Cn2ccc(C(F)(F)F)n2)c2ccccc21,inactive,
Cc1ccc2c(c1)c1c(n2CC(O)Cn2ccnc2C)C(=O)CCC1 (stereo not given),"inconclusive [inhibitor, partial curve]",
Cc1cc([N+](=O)[O-])ccc1NC(=O)c1sc2ncn(CC(=O)N3CCOCC3)c(=O)c2c1C,"inconclusive [inhibitor, single point]",
O=c1c2ccc(Cl)cc2nc2n1CC/C2=C\c1cccc(O)c1,active: 13.1 µM,
COc1ccc(-c2cccc(NC(=O)c3cccs3)c2)nn1,active: 9.28 µM,
O=C(Nc1ccc(F)cc1)c1ccccc1NS(=O)(=O)N1CCCC1,"inconclusive [inhibitor, single point]",
O=C(CN1c2ccccc2Sc2ccccc21)N/N=C/c1ccc(Cl)cc1,"inconclusive [inhibitor, partial curve]",
Cc1ccc(SC(C)c2nc(-c3ccncc3)no2)cc1 (stereo not given),"inconclusive [inhibitor, single point]",
Cc1ccc(O)c(-c2cc(-c3ccccc3[N+](=O)[O-])[nH]n2)c1,"inconclusive [inhibitor, single point]",
O=[N+]([O-])CC(c1ccc(F)cc1)c1c[nH]c2ccccc12 (stereo not given),"inconclusive [inhibitor, single point]",
CC(Cc1ccccc1)C(=O)Nc1ccc(Br)cc1 (stereo not given),inactive,
COc1ccc(C2C(C(C)=O)=C(C)N=c3s/c(=C\c4cc(C)n(C)c4C)c(=O)n32)c(OC)c1 (stereo not given),active: 9.28 µM,
CC1Cc2ccccc2N1Cc1ccc([N+](=O)[O-])cc1 (stereo not given),"inconclusive [inhibitor, partial curve]",
CCC(C)(C)n1nnnc1C(c1cc2ccc(OC)cc2[nH]c1=O)N1CCc2ccccc2C1 (stereo not given),"inconclusive [inhibitor, single point]",
COc1ccc(-n2c(C)cc(C(=O)NC3CCCCC3)c2C)cc1,"inconclusive [inhibitor, single point]",
CCc1cccc(NC(=O)C2CCCN2S(=O)(=O)c2ccc3c(c2)CC(C)N3C(C)=O)c1 (stereo not given),active: 11.7 µM,
Cc1cccc(OCC(=O)O/N=C(\N)Cc2cccs2)c1,inactive,
Cc1ccc(-c2csc3ncnc(N4CCN(Cc5ccccc5)CC4)c23)cc1,"inconclusive [inhibitor, single point]",
c1ccc(Cn2c[n+](Cc3ccccc3)c3ccccc32)cc1,"inconclusive [inhibitor, partial curve]",
CCCC(=O)c1c[nH]c(C(=O)NCCCN2CCOCC2)c1,"inconclusive [inhibitor, partial curve, poor fit]",
O=C(CN1C(=O)COc2ccccc21)NCCC1=CCCCC1,inactive,
Cn1cccc1C(=O)NCCc1ccc(Cl)cc1,inactive,
Cc1cccc(CSc2nc(N)c(C#N)c(-c3cccs3)c2C#N)c1,active: 13.1 µM,
Cc1cccc(COc2ccccc2C(=O)NC2CCC(O)CC2)c1 (stereo not given),"inconclusive [inhibitor, single point]",

Structure (SMILES),Potency,"activity change, negative = inhibition"
Cc1ccc(OCCNC(=O)c2ccccc2O)cc1,"inconclusive [inhibitor, partial curve, poor fit]",
O=C(NC(=S)Nc1ccccc1N1CCOCC1)c1cccc([N+](=O)[O-])c1,"inconclusive [inhibitor, single point]",
CCCCN(C(=O)CCC(=O)Nc1cc(C)on1)C(C(=O)NC(C)(C)C)c1cccc(OC)c1OC (stereo not given),"inconclusive [inhibitor, single point]",
Cn1c(=O)c2c(nc(CN3CCN(C(=O)c4ccco4)CC3)n2CCc2ccccc2)n(C)c1=O,"inconclusive [inhibitor, full curve, poor fit]",
COc1ccc(C(=O)NCC2(c3ccc(OC)c(OC)c3)CCCC2)c(OC)c1,active: 11.7 µM,
COc1cc(SC)ccc1C(=O)Nc1ccc(Cl)cn1,inactive,
OCCNCc1ccc(OCc2ccc(Cl)cc2Cl)cc1,"inconclusive [inhibitor, single point]",
O=C(NCc1cccnc1)c1cccc(NC(=O)c2ccco2)c1,inactive,
O=C1CC(NS(=O)(=O)c2cc(F)ccc2F)CN1c1cccc(F)c1 (stereo not given),inactive,
CCCCn1c(N)c(N(CC(C)C)C(=O)c2cc(C)nc3ccccc23)c(=O)[nH]c1=O,"inconclusive [inhibitor, single point]",
O=C(Nc1ccccc1)Nc1sccc1-c1nc2ccccc2s1,"inconclusive [inhibitor, single point]",
S=C(c1ccccc1)N1CCSCC1,,inactive: -12.7% [at 0.00184 µM]
Cc1nc(NCc2ccc(S(N)(=O)=O)cc2)c2c(C)c(C)sc2n1,"inconclusive [inhibitor, full curve, poor fit]",
CC(=O)NCCn1c(SCC(=O)NCCC2=CCCCC2)nc2ccccc2c1=O,inactive,
Cc1ccc(C(c2sc3ncnn3c2O)N2CCCCC2)cc1 (stereo not given),"inconclusive [inhibitor, partial curve]",
O=C(NNC(=S)NC1CCCCC1)c1sc2ccccc2c1Cl,inactive,
O=C(COc1ccc(S(=O)(=O)NC2CCCCC2)cc1Cl)NCC1CCCO1 (stereo not given),"inconclusive [inhibitor, single point]",
CN(C)S(=O)(=O)N1CCN(C(=O)N2CCOCC2)CC1,inactive,
COC(=O)CC1C(=O)NCCN1C(=O)CSc1nc2ccccc2c(=O)n1CC(C)C (stereo not given),inactive,
CCCSc1nc2c(c(=O)[nH]c(=O)n2C)n1Cc1ccccc1,"inconclusive [inhibitor, partial curve, poor fit]",
Cc1nc(C(C)NC(=O)c2cc(COc3ccc(C)c(C)c3)on2)c(C)s1 (stereo not given),inactive,
CC1CC(=O)C2=C(C1)Nc1nc3ccccc3n1C2c1cccnc1 (stereo not given),"inconclusive [inhibitor, partial curve, poor fit]",
CC(=O)N1CCN(S(=O)(=O)c2ccc3c(c2)CCC(=O)N3)CC1,inactive,
O=C(CN1C(=O)CN=C(c2ccccc2Cl)c2cc(Cl)ccc21)NCc1ccco1,"inconclusive [inhibitor, single point]",

Structure (SMILES),Potency,"activity change, negative = inhibition"
Cc1c(C(=O)Nc2cccc([N+](=O)[O-])c2)csc1-c1ccccc1,inactive,
COc1cccc(CNC(=O)c2ccc(NC(=O)CC3SC(N4CCCCC4)=NC3=O)cc2)c1 (stereo not given),"inconclusive [inhibitor, single point]",
CC(=O)/C(=N/Nc1ccccc1[N+](=O)[O-])N1CCCc2ccccc21,"inconclusive [inhibitor, single point]",
C=C1CCC2[C@](C)(CO[C@@H]3O[C@H](CO)[C@@H](O)[C@H](O)[C@H]3O)CCC[C@@]2(C)[C@@H]1CCC1=CCOC1=O (stereo not given in full),"inconclusive [inhibitor, single point]",
COc1cc2c(cc1OC)C(NC(=O)C(F)(F)F)CNC2=O (stereo not given),"inconclusive [inhibitor, single point]",
COc1cc(CN(C)Cc2cc(=O)n3ccsc3n2)ccc1OC(F)F,"inconclusive [inhibitor, partial curve, poor fit]",
Cc1c(C(=O)c2ccc(Cl)cc2[N+](=O)[O-])c2ccccn2c1CCC#N,inactive,
CC(C)(C)C(=O)COC(=O)C1=NN(c2ccccc2)C(=O)CC1,inactive,
Cn1c(=O)c2c(nc(CN3CCN(C(c4ccccc4)c4ccccc4)CC3)n2CCCO)n(C)c1=O,active: 2.94 µM,
Cc1[nH]n(-c2ccccc2)c(=O)c1/C=N/NC(=O)C(C)C,"inconclusive [inhibitor, single point]",
CCOc1ccc(-c2c(C(=O)N/N=C/c3cccnc3)nnn2-c2nonc2N)cc1,inactive,
O=[N+]([O-])c1cc(S(=O)(=O)Nc2ccc(Cl)cc2)ccc1N/N=C/c1ccncc1,"inconclusive [inhibitor, partial curve, poor fit]",
CC(C)[C@H](NC(=O)c1ccccc1)C(=O)OCC(=O)N1CCCc2ccccc21,inactive,
Cc1cccc2cc(/C=C/C(=O)c3ccco3)c(Cl)nc12,"inconclusive [inhibitor, single point]",
CC(C1CC1)N(Cc1ccccc1)C(=O)NC(=O)c1cccc(F)c1 (stereo not given),"inconclusive [inhibitor, partial curve, poor fit]",
COc1ccc(NC(=O)CCNS(=O)(=O)c2ccc(Cl)c([N+](=O)[O-])c2)cc1S(N)(=O)=O,"inconclusive [inhibitor, single point]",
CCNC(=S)N/N=C(\C)c1ccc(Cl)s1,"inconclusive [inhibitor, single point]",
Cc1cccn2c(=O)c3cc(C#N)c(=O)n(CCCN4CCOCC4)c3nc12,"inconclusive [inhibitor, partial curve, poor fit]",
CC(Sc1nnc2n1CCCCC2)C(=O)Nc1ccc(S(N)(=O)=O)cc1 (stereo not given),inactive,
CCCCN(CC)CCCNC(=O)c1cc2c(-c3ccc(OC)c(OC)c3)nn(C)c2s1,active: 2.62 µM,
COc1ccc2cc3cc(C(=O)NCC4COc5ccccc5O4)oc3nc2c1 (stereo not given),"inconclusive [inhibitor, partial curve, poor fit]",
C=CCn1c(SCC(=O)N(CCOC)c2c(N)n(CCCC)c(=O)[nH]c2=O)nnc1-c1ccc(Cl)cc1,inactive,

# — PubChem BioAssay AID504832 (National Center for Advancing Translational Sciences (NCATS), 2011)
